# Laboratory results reported in patent US20230256114A1, “NOVEL MAYTANSINOIDS AS ADC PAYLOADS AND THEIR USE FOR THE TREATMENT OF CANCER” (priority 2020, published 2023).
# B1: Anti-Trop-2-BI-P209: humanized anti-Trop-2 antibody conjugated to BI-P209 payload (conjugate)
# heavy: SALMSRLTISKDTSKNQFSLKLSSVTAADTAVYYCARDENWDGAWFAYWGQGTLVTVSSASTKGPSVFPLAPSSKSTSGGTAALGCLVKDYFPEPVTVSWNSGALTSGVHTFPAVLQSSGLYSLSSVVTVPSSSLGTQAYICNVNHKPSNTKVDKKVG[human IgG1 Fc with K334R T359A (EU numbers) not shown]
# light: DIVMTQSPDSLAVSLGERATINCKSSQSLLNSGTRKNYLAWYQQKPGQPPKLLISWASSRESGVPDRFSGSGSGTDFTLTISSLQAEDVAVYYCKQSYNLFTFGGGTKVEIKRTVAAPSVFIFPPSDEQLKSGTASVVCLLNNFYPREAKVQWKVDNALQSGNSQESVTEQDSKDSTYSLSSTLTLSKADYEKHKVYACEVTHQGLSSPVTKSFNRGEC
# B2: Anti-Trop-2-SMCC-DM1: comparator ADC: anti-Trop-2 antibody with SMCC-DM1 payload, lysine conjugation, DAR 4 (conjugate)
# heavy: B1 heavy
# light: B1 light
# B3: Anti-Trop-2-Vc-MMAE: comparator ADC: anti-Trop-2 antibody with vc-MMAE payload, DAR 4 (conjugate)
# heavy: B1 heavy
# light: B1 light
# B4: Anti-Trop-2-BI-P205: humanized anti-Trop-2 antibody conjugated to BI-P205 payload (conjugate)
# heavy: B1 heavy
# light: B1 light
# Legend:
# [1] = system: MDA-MB-468, SK-BR-3, Colo205, and A549 cells; experiment: In vitro cytotoxicity assay of ADCs and free payloads (FIG. 20); assay type: cell-based
# Protocol: Anti-Trop-2 ADCs were conjugated with different DM1 derivatives with similar DARs, and were tested ahead to ahead with anti-Trop-2-SMCC-DM1 and anti-Trop-2-vc-MMAE against BxPC-3 pancreatic cancer cells representing high Trop-2 expression, MDA-MB-468 breast cancer cells, N87 gastric cancer cells, and SK-BR-3 […] cancer cells representing moderate Trop-2 expression, Colo205 colon cancer cells representing low Trop-2 expression, and A549 lung cancer cells and MDA-MB-231 breast cancer cells with undetectable level of Trop-2. In vitro cytotoxicity assay was performed. Briefly, all cell lines were cultured in a suitable culture medium at 37° C. in a humidified incubator atmosphere of 5% CO2. Cells were plated in 96-well flat bottom plates. Cell seeding number ranged from 500 cells//100 ul/well to 6,000 cells/100 μl/well. Cells were allowed to adhere overnight at 37° C. in a humidified atmosphere of 5% CO2. ADCs were prepared from stock solution and diluted into appropriated working concentration 24 hours after cell seeding. […] Cell Counting Kit-8 solution (Dojindo China Co., Ltd, lot #PL701) was added to the wells for 1-4 hours at 37° C. and the absorbance at 450 nm was measured using a Microplate Reader (SpectraMax M5, Molecular Devices) and SoftMax Pro5.4.1 software. Dose-response curves were generated and IC50 was calculated using GraphPad Prism 7 three-parameter curve fitting. […]
# A549 lung cancer cells = experiment: In vitro cytotoxicity assay (Cell Counting Kit-8, 72 hours); assay type: cell-based, human; conditions: A549, TROP2 expression −
# Protocol: (§1) Anti-Trop-2 ADCs were conjugated with different DM1 derivatives with similar DARs, and were tested ahead to ahead with anti-Trop-2-SMCC-DM1 and anti-Trop-2-vc-MMAE against BxPC-3 pancreatic cancer cells representing high Trop-2 expression, MDA-MB-468 breast cancer cells, N87 gastric cancer cells, and SK-BR-3 […] cancer cells representing moderate Trop-2 expression, Colo205 colon cancer cells representing low Trop-2 expression, and A549 lung cancer cells and MDA-MB-231 breast cancer cells with undetectable level of Trop-2. In vitro cytotoxicity assay was performed. Briefly, all cell lines were cultured in a suitable culture medium at 37° C. in a humidified incubator atmosphere of 5% CO2. Cells were plated in 96-well flat bottom plates. Cell seeding number ranged from 500 cells//100 ul/well to 6,000 cells/100 μl/well. Cells were allowed to adhere overnight at 37° C. in a humidified atmosphere of 5% CO2. ADCs were prepared from stock solution and diluted into appropriated working concentration 24 hours after cell seeding. A serial ten-fold dilution for seven points was performed with culture medium. The final concentrations were ranging from 10,000 nM to 0.001 nM. The cells were incubated with ADCs for 72 hours. Cell Counting Kit-8 solution (Dojindo China Co., Ltd, lot #PL701) was added to the wells for 1-4 hours at 37° C. and the absorbance at 450 nm was measured using a Microplate Reader (SpectraMax M5, Molecular Devices) and SoftMax Pro5.4.1 software. Dose-response curves were generated and IC50 was calculated using GraphPad Prism 7 three-parameter curve fitting.
# [2] = system: MDA-MB-231 breast cancer cells; experiment: as above; assay type: cell-based, human; conditions: MDA-MB-231, TROP2 expression −, ADC DAR 4
# Protocol: as §1
# [3] = system: Trop-2 high or medium cells; experiment: In vitro cytotoxicity assay, summary over cell lines with high/moderate Trop-2 expression; assay type: cell-based; conditions: ADC-BI-P203 DAR7, ADC-vc-MMAE DAR4; BxPC-3, MDA-MB-468, NCI-N87
# Protocol: Anti-Trop-2 ADCs were conjugated with different DM1 derivatives with similar DARs, and were tested ahead to ahead with anti-Trop-2-SMCC-DM1 and anti-Trop-2-vc-MMAE against BxPC-3 pancreatic cancer cells representing high Trop-2 expression, MDA-MB-468 breast cancer cells, N87 gastric cancer cells, and SK-BR-3 […] cancer cells representing moderate Trop-2 expression, Colo205 colon cancer cells representing low Trop-2 expression, and A549 lung cancer cells and MDA-MB-231 breast cancer cells with undetectable level of Trop-2. In vitro cytotoxicity assay was performed. Briefly, all cell lines were cultured in a suitable culture medium at 37° C. in a humidified incubator atmosphere of 5% CO2. Cells were plated in 96-well flat bottom plates. Cell seeding number ranged from 500 cells//100 ul/well to 6,000 cells/100 μl/well. Cells were allowed to adhere overnight at 37° C. in a humidified atmosphere of 5% CO2. ADCs were prepared from stock solution and diluted into appropriated working concentration 24 hours after cell seeding. […] Cell Counting Kit-8 solution (Dojindo China Co., Ltd, lot #PL701) was added to the wells for 1-4 hours at 37° C. and the absorbance at 450 nm was measured using a Microplate Reader (SpectraMax M5, Molecular Devices) and SoftMax Pro5.4.1 software. Dose-response curves were generated and IC50 was calculated using GraphPad Prism 7 three-parameter curve fitting.
molecule,measurement,setting,value
B1,in vitro cytotoxic activity of the ADC compared with ADC-BI-P203,[1],comparable activity as ADC-BI-P203
B2,IC50,A549 lung cancer cells; ADC DAR 4,> 100 nM
same,IC50,"A549 lung cancer cells; ADC DAR 4, listed as ADC-SMCC-DM1",~100 nM
same,IC50,[2],> 100 nM
same,IC50,[2]; listed as ADC-SMCC-DM1,~100 nM
B3,IC50,A549 lung cancer cells; ADC DAR 4,> 100 nM
same,IC50,"A549 lung cancer cells; ADC DAR 4, listed as ADC-vc-MMAE",~100 nM
same,IC50,[2],> 100 nM
same,IC50,[2]; listed as ADC-vc-MMAE,~100 nM
same,cell killing potency compared with ADC-SMCC-DM1 (DAR4),[3],more potent than ADC-SMCC-DM1(DAR4)
B4,IC50,A549 lung cancer cells; ADC DAR 3.6,> 100 nM
